The whole screen tested about 310,000 compounds, of which about 18,000 (5.8%) were called active. Inconclusive results, whose numbers are uncertain, are shown with a selection of clear calls. The call rests on the fitted dose curve; in most records, active means well fitted inhibition curve with a large enough effect; inconclusive means small, poorly fitted or top-dose-only effect, or another doubt; inactive means no such curve, though single readings can be large or run the other way. No potency is given beside an inconclusive call; the fits are too rough.
Assay: Primary qHTS for delayed death inhibitors of the malarial parasite plastid, 48 hour incubation
Settings: P. falciparum luciferase growth in erythrocytes; series mostly up to 28.7 µM
Summary of the method: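 Growth was read as firefly luciferase luminescence after a 48 h, 37 C, 5% CO2 exposure of compounds to reporter-bearing P. falciparum cultures (0.1% parasitemia, 2% hematocrit final) in Albumax-supplemented RPMI 1640.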
In the case of `O=C(CCN1C(=O)c2ccccc2S1(=O)=O)Nc1ccc2c(c1)OCCO2`, the Potency is reported as “inactive”.
For `CCCCCCCCCCCCCCNCCO`, the Potency was inconclusive [inhibitor, partial curve, poor fit].
In the case of `O=C(Nc1nc2c(s1)CCCC2)c1cccnc1`, the Potency is reported as “inactive”.
With `Cc1cccc(C)c1NC(=S)N1CCCCCC1` the Potency was “inactive”.
In the case of `CCCN1C(=O)/C(=C\C=C2\N(CC)c3ccccc3C2(C)C)SC1=S`, the Potency is reported as active: 5.22 µM.
With `COCCn1nnnc1C(c1ccc2ncccc2c1)N1CCc2ccccc21` (centres undefined) the Potency was inconclusive [inhibitor, partial curve, poor fit].
For `CC(=O)N1CCN(c2ccccc2NC(=O)COc2ccc(Cl)cc2Cl)CC1`, the Potency was active: 10.4 µM.
In the case of `COc1ccccc1NC(=O)C(C)OC(=O)C1CCN(S(=O)(=O)c2ccc(C)c(C)c2)CC1` (centres undefined), the Potency is reported as inconclusive [inhibitor, single point].
For `Cc1nc(-c2nc(-c3c(C(=O)NN)noc3C)cs2)cs1`, the Potency was “inactive”.
With `C[n+]1ccc(/C=N/Nc2nc(Cl)c(C#N)c(Cl)c2Cl)cc1` the Potency was “inactive”.
For `CCC(C(=O)NC(C)(C)C)N(C(=O)Cn1nnc(-c2cccs2)n1)c1cnc2ccccc2c1` (centres undefined), the Potency was inconclusive [inhibitor, single point].
For `CSc1n[nH]c(=O)n1C1CCCCC1`, the Potency was “inactive”.
In the case of `CCc1ccc2c(c1)C(c1ccc([N+](=O)[O-])cc1)=NNC(c1ccc(Br)cc1)=N2`, the Potency is reported as active: 9.28 µM.
In the case of `COc1cc(O)c(C(CC(=O)N2CCN(c3ccccc3)CC2)c2cc(OC)c(OC)c(OC)c2)c(OC)c1` (centres undefined), the Potency is reported as active: 11.7 µM.
For `CCc1sc(NC(=O)CN2CCOCC2)nc1-c1ccccc1`, the Potency was “inactive”.
With `Cc1cc(C)n(CCC(=O)N2CCCC(N3CCN(c4cccc(Cl)c4)CC3)C2)n1` (centres undefined) the Potency was “inactive”.
With `C/C(=N/N=C1\SCC(=O)N1c1ccccc1)c1ccc(C)cc1` the Potency was inconclusive [inhibitor, full curve].
With `COc1ccccc1C1N(c2ccc(F)cc2)C(=O)C2CCCN21` (centres undefined) the Potency was inconclusive [inhibitor, single point].
In the case of `CCCCn1cnc2c([nH]c3ccccc32)c1=O`, the Potency is reported as “inactive”.
In the case of `CN(CC(=O)NCc1ccccc1Cl)S(=O)(=O)c1ccc2c(c1)n(C)c(=O)c(=O)n2C`, the Potency is reported as inconclusive [inhibitor, single point].
For `CN1CCN(C2=NC(=O)/C(=C/c3ccccc3OS(=O)(=O)c3ccccc3)S2)CC1`, the Potency was inconclusive [inhibitor, partial curve].
For `Cc1ccc(C)c(N2CCN(Cc3nnnn3C3CCCCC3)CC2)c1`, the Potency was inconclusive [inhibitor, single point].
With `O=S(=O)(c1ccccc1)N1CCN=C1SCc1ccc(Cl)cc1` the Potency was inconclusive [inhibitor, partial curve].
For `CNC(=O)c1c[nH]c2ccc(S(=O)(=O)Nc3cccc(SC)c3)cc2c1=O`, the Potency was “inactive”.
For `COc1ccc(C(=O)c2ccc(CC(=O)O)s2)cc1`, the Potency was active: 6.57 µM.
In the case of `Clc1ccccc1OCCN1CCC(Cc2ccccc2)CC1`, the Potency is reported as inconclusive [inhibitor, single point].
In the case of `C=CCn1c(SCc2ccccc2C#N)nnc1-c1cc(Br)ccc1O`, the Potency is reported as active: 2.33 µM.
For `COC(=O)NC1(C(F)(F)F)C(=O)Nc2c1c(=O)n(C)c(=O)n2C` (centres undefined), the Potency was “inactive”.
In the case of `CCOc1ccc(C(=O)Nc2c3c(nn2-c2ccccc2)CS(=O)(=O)C3)cc1`, the Potency is reported as inconclusive [inhibitor, single point].
For `CC(C)COCc1ccc(O)c2ncccc12`, the Potency was inconclusive [inhibitor, partial curve, poor fit].
For `O=C(NCCC1=CCCCC1)c1ccc(=O)oc1`, the Potency was “inactive”.
For `CCCn1c(NC(=O)c2ccc(C)cc2)nc2ccccc21`, the Potency was inconclusive [inhibitor, single point].
In the case of `CCN(CC)S(=O)(=O)c1cc(NC(=O)C(C)N2CCN(Cc3ccc4c(c3)OCO4)CC2)ccc1C` (centres undefined), the Potency is reported as inconclusive [inhibitor, partial curve, poor fit].
For `O=C(NNC(=O)C1CC(=O)N(Cc2ccccc2)C1)c1ccc(F)cc1` (centres undefined), the Potency was “inactive”.
In the case of `CCCC(OC(=O)CN1C(=O)COc2ccccc21)C(=O)NC1CCCC1` (centres undefined), the Potency is reported as inconclusive [inhibitor, single point].
For `COc1ccc(/C=C2\CC/C(=C\c3ccc(OC)cc3OC)C2=O)c(OC)c1`, the Potency was inconclusive [inhibitor, partial curve, poor fit].
In the case of `CCP(=O)(CC)C(C)(C)CP(=O)(c1ccccc1)c1ccccc1`, the Potency is reported as “inactive”.
With `CCOC(=O)CC(NC(=O)c1ccc(C)cc1)c1ccc(OC)cc1` (centres undefined) the Potency was inconclusive [inhibitor, full curve, poor fit].
With `COc1ccc(CCNC(=O)c2ccc(N(C)S(=O)(=O)c3ccc(C)cc3)cc2)cc1` the Potency was inconclusive [inhibitor, partial curve, poor fit].
In the case of `O=S(=O)(N1CCCCC1)n1c(Cc2ccccc2)nc2ccccc21`, the Potency is reported as active: 11.7 µM.
For `Cc1ccc(C(=O)NCCNS(C)(=O)=O)cc1`, the Potency was “inactive”.
With `C/C=C(/C)C(=O)Nc1cccc(C2=NOC3(C2)C[C@@H](C(N)=O)N(C(=O)CC(c2ccccc2)c2ccccc2)C3)c1` (some centres undefined) the Potency was inconclusive [inhibitor, partial curve].
With `CCCCC(=O)Nc1ccccc1N1CCOCC1` the Potency was “inactive”.
With `O=C(Nc1ccc(S(=O)(=O)N2CCOCC2)cc1)c1cccnc1` the Potency was inconclusive [inhibitor, single point].
For `Cc1ccc2oc(C(=O)Nc3nonc3C)c(C)c2c1`, the Potency was “inactive”.
For `Cc1nn(Cc2ccc(Cl)c(Cl)c2)c(C)c1NC(=O)c1cn(-c2ccccc2)nc1-c1ccccc1`, the Potency was inconclusive [inhibitor, single point].
With `Cc1ccc(Nc2ncnc3c2cnn3C)cc1` the Potency was “inactive”.
In the case of `COc1ccc(OCC(=O)Nc2ccc3oc(=O)ccc3c2)cc1`, the Potency is reported as inconclusive [inhibitor, single point].
In the case of `CC(C)(C)C(=O)Nc1cccc(-c2nnc(-c3cccc(NC(=O)C(C)(C)C)c3)o2)c1`, the Potency is reported as active: 4.65 µM.
Potency means the concentration at half of the fitted maximal effect; tags describe the fitted curve by direction and shape.
